# Among all 48,000 compounds or so, about 450 (0.94%) were called active. Inconclusive means that the source gave no clear call. Such entries were picked first, then a sample of the others. Calls follow the shape of the dose curve; as a rule, active = well fitted inhibition curve with a large enough effect; inconclusive = small, poorly fitted or top-dose-only effect; inactive = no such curve, though single readings can be large or run the other way. Potencies of inconclusive entries are doubtful fits and often do not repeat.
# Experiment: Primary qHTS for Identification of Small Molecule Inhibitors of Huntingtin Promoter Activity; also: nearly all actives have a fitted effect of over 50% in size
# Details: HEK293 HTT promoter firefly luciferase reporter (activity 0% = vehicle and -100% = no light), 24 h; activity change, negative = inhibition: at 57.5 µM (top of the series)
# Summary of the method: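 HEK293 cells carrying firefly luciferase reporters were seeded at 2,500 per well in Opti-MEM and cultured for 24 h. They were then treated with compounds at up to 57.5 uM final for 24 h at 37 degrees C before Dual-Glo luminescence readout.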
# Potency is read from the fitted curve at half-maximal effect; tags tell the direction and shape of the fitted curve.
Compound,Potency,"activity change, negative = inhibition"
COC(=O)c1cccc(Cn2nnc3sc4c(c3c2=O)CCC(C(C)(C)C)C4)c1 (stereo not given),"inconclusive: 1.12 µM [inhibitor, full curve, poor fit]",
Cc1nnc(N2CCCC(C(=O)Nc3cccc(C(F)(F)F)c3)C2)c2nn(-c3ccccc3)c(C)c12 (stereo not given),"inconclusive: 39.8 µM [inhibitor, single point]",
O=C(Nc1cccc(Cl)c1)c1cc(-c2ccc3c(c2)OCCO3)on1,"inconclusive: 39.8 µM [inhibitor, single point]",
Cc1cccc(N(C)C(CNS(=O)(=O)c2ccccc2)c2ccccc2)c1 (stereo not given),"inconclusive: 35.5 µM [inhibitor, single point]",
Cc1cccc(C(=O)Nc2cccc(C(=O)OCc3cc(=O)n4nc(C(C)C)sc4n3)c2)c1,inactive,
Cn1nnnc1SCCNCc1ccc(OCc2ccccc2Cl)cc1,inactive,
CC(NC(=O)c1ccc(NC(=O)c2nsc3ccccc23)cc1)c1ccccc1 (stereo not given),"inconclusive: 17.8 µM [inhibitor, partial curve, poor fit]",
O=C(COc1ccccc1)NCc1ccc2c(c1)CCN2C(=O)c1ccccc1,"inconclusive: 39.8 µM [inhibitor, single point]",
Cc1ccc(N(C)S(=O)(=O)c2ccc3[nH]c4c(c3c2)CCCC4)cc1,inactive,
Cc1cccc(NC(=O)c2sc3nc4c(cc3c2N)CCCCCC4)c1C,"inconclusive: 10 µM [inhibitor, partial curve, poor fit]",
CC(C)C1C(=O)Nc2ccc(S(=O)(=O)NCc3ccc(Cl)cc3)cc21 (stereo not given),"inconclusive: 14.1 µM [inhibitor, partial curve, poor fit]",
Cc1ccc(NC(=O)CSc2c3c(nc4ccccc24)CCCC3)cc1F,inactive,
Cc1ccccc1Nc1c(-c2cccc(N(C)C)c2)nc2ccc(Br)cn12,inactive,
CCOC(=O)c1ccc(NC(=O)CC2C(=O)N(c3ccc(C)cc3)C(=O)N2C2CCCCC2)cc1 (stereo not given),"inconclusive: 31.6 µM [inhibitor, single point]",
COc1ccc(CCN2C(=O)c3[nH]nc(-c4ccccc4O)c3C2c2cccc(OC)c2)cc1 (stereo not given),"inconclusive: 28.2 µM [inhibitor, partial curve, poor fit]",
CC(C)S(=O)(=O)c1oc(-c2ccc(F)cc2)nc1S(=O)(=O)c1ccccc1,"inconclusive: 39.8 µM [inhibitor, single point]",
CCOC(=O)c1ccccc1NS(=O)(=O)c1ccc(N2CCCCS2(=O)=O)cc1,"inconclusive: 28.2 µM [inhibitor, partial curve]",
Cc1ccccc1-c1nc(CS(=O)CC(=O)N2CCN(c3cc(Cl)ccc3C)CC2)c(C)o1 (stereo not given),"inconclusive: 22.4 µM [inhibitor, partial curve, poor fit]",
CCc1ccccc1NC(=O)Cn1ccn(-c2cc(C)cc(C)c2)c(=O)c1=O,"inconclusive: 15.8 µM [inhibitor, partial curve, poor fit]",
CCOc1cccc(C2Nc3ccccc3-c3cc(C)nn32)c1O (stereo not given),,inactive: -17.9% [at 11.5 µM]

Compound,Potency,"activity change, negative = inhibition"
CCn1c(=NC(=O)c2ccc3c(c2)OCCO3)sc2c(C)ccc(OC)c21,"inconclusive: 0.398 µM [inhibitor, full curve, poor fit]",
CCCCCCCCCCCCCCCCCCNC(=O)OC1CCN(C(=O)OC[C@H](COC(=O)N(Cc2cccc[n+]2CC)C(=O)c2ccccc2OC)OC)CC1,"inconclusive: 28.2 µM [inhibitor, single point]",
Cc1ccc(NC(=O)CSc2nc(C)c(Cc3ccccc3)c(=O)[nH]2)cc1C,inactive,
Cc1nn(C(C)C(=O)NC2CCCCC2)c(=O)c2c1sc1ccccc12 (stereo not given),inactive,
CCN(c1ccccc1)C(CNS(=O)(=O)c1ccccc1)c1ccccc1 (stereo not given),"inconclusive: 22.4 µM [inhibitor, single point]",
COc1ccc2c(CNCc3ccc(C)o3)c(C(=O)O)n(Cc3ccccc3C)c2c1,inactive,
COc1cc(C(=O)CC2(O)C(=O)N(Cc3ccccc3Cl)c3ccccc32)cc(OC)c1OC (stereo not given),"inconclusive: 35.5 µM [inhibitor, single point]",
O=C(Nc1c(C(=O)N2CCN(c3ccc(F)cc3)CC2)oc2ccccc12)c1c(F)cccc1F,"inconclusive: 35.5 µM [inhibitor, single point]",
CC(C)Oc1ccc(C(=O)Nc2ccc3c(c2)CCCN3C(=O)c2cccs2)cc1,"inconclusive: 12.6 µM [inhibitor, partial curve]",
Cc1sccc1Br,inactive,
CCCN1C(=O)c2[nH]nc(-c3ccccc3O)c2C1c1ccc(OCc2ccccc2)c(OCC)c1 (stereo not given),"inconclusive: 28.2 µM [inhibitor, partial curve]",
CCc1ccc(NC(=O)C2CCC(CNS(=O)(=O)c3ccc4c(c3)CC(C)N4C(C)=O)CC2)cc1 (stereo not given),"inconclusive: 14.1 µM [inhibitor, partial curve, poor fit]",
COc1ccc(NC(=O)CSc2nnc(-c3ccc(OC)cc3)s2)cc1,"inconclusive: 1.26 µM [inhibitor, full curve]",
CC(C)(C)c1cnc(CSc2cnc(NC(=O)C3CCNCC3)s2)o1,"inconclusive: 5.44 µM [inhibitor, full curve]",
CC(C)OCCCNc1sc(S(=O)(=O)c2ccccc2)nc1S(=O)(=O)c1ccc(Cl)cc1,"inconclusive: 31.6 µM [inhibitor, partial curve, poor fit]",
Cc1c(C(=O)Nc2ccc(F)cc2F)oc2ccc3c(c12)C(=O)CC(C)(C)O3,"inconclusive: 0.282 µM [inhibitor, full curve]",
CCOC(=O)c1cc(-c2ccc(OC)cc2)n(CCC(=O)NCc2ccccc2OC)c1C,"inconclusive: 35.5 µM [inhibitor, single point]",
Cc1c(Cl)cccc1NC(=O)C1CCCN(C(=O)c2cnn(-c3ccccc3)c2-n2cccc2)C1 (stereo not given),"inconclusive: 31.6 µM [inhibitor, single point]",
CC(C)(C)C(=O)Nc1nnc2n1CCS2,inactive,
CCOc1ccccc1N(C)C(=O)c1cc(S(=O)(=O)NCCc2ccc(Cl)cc2)ccc1F,"inconclusive: 28.2 µM [inhibitor, single point]",

Compound,Potency,"activity change, negative = inhibition"
CC(C)(C)c1ccc(C(=O)N2CCC(c3noc(-c4ccc(S(=O)(=O)N5CCCC5)cc4)n3)CC2)cc1,"inconclusive: 3.16 µM [inhibitor, single point]",
Cc1ccccc1CNC(=O)CCc1cn(Cc2ccccc2C)c2ccccc12,"inconclusive: 25.1 µM [inhibitor, single point]",
CCN(CC)S(=O)(=O)c1ccc(NC(=O)c2ccc3c(=O)n4c(nc3c2)CCCCC4)cc1,"inconclusive: 10 µM [inhibitor, partial curve, poor fit]",
Cc1cc(=O)c2c(O)c3c(O)cc(=O)c4c3c3c(cc(O)c1c23)C(C)(C)C=4O,inactive,
CCOC(=O)C1=C(CS(=O)(=O)c2ccc(C(C)(C)C)cc2)NC(=O)NC1c1cccc(OC)c1 (stereo not given),"inconclusive: 31.6 µM [inhibitor, single point]",
O=C(CSCc1ccc(F)cc1)N1CCc2c([nH]c3ccccc23)C1c1ccc(F)cc1 (stereo not given),"inconclusive: 28.2 µM [inhibitor, single point]",
COc1ccc(/C=C/C(=O)Nc2ccc3nc4c(c(Nc5ccccc5OC)c3c2)CCCC4)cc1,"inconclusive: 28.2 µM [inhibitor, single point]",
O=C(c1ccc2c(c1)N(Cc1cccc(F)c1)C(=O)c1ccccc1S2)N1CCOCC1,inactive,
Cc1ccccc1CN1C(=O)c2ccccc2S(=O)c2ccc(C(=O)NC3CCC(C)CC3)cc21 (stereo not given),"inconclusive: 14.1 µM [inhibitor, partial curve, poor fit]",
Cc1ccc(CN(C(=O)COc2ccc([N+](=O)[O-])cc2)c2ccccn2)cc1,"inconclusive: 39.8 µM [inhibitor, partial curve, poor fit]",
CCN(C(=O)CSc1nc2ncccc2[nH]1)c1ccc(C(C)C)cc1,"inconclusive: 25.1 µM [inhibitor, partial curve, poor fit]",
CCOc1ccc(N2CC(c3nc4ccccc4n3CCCOc3ccccc3)CC2=O)cc1 (stereo not given),"inconclusive: 31.6 µM [inhibitor, single point]",
Cc1c(C(=O)NCC(c2ccc(Cl)cc2)N2CCOCC2)oc2ccccc12 (stereo not given),"inconclusive: 31.6 µM [inhibitor, single point]",
CC(Oc1ccc(F)cc1)C(=O)N1CCC(c2nc3ccccc3s2)CC1 (stereo not given),"inconclusive: 22.4 µM [inhibitor, partial curve]",
CCOC(=O)N1CCc2c(sc(NCc3sccc3C)c2C(=O)Nc2ccc(OC)cc2OC)C1,"inconclusive: 10 µM [inhibitor, partial curve, poor fit]",
COc1ccccc1N1CCN(C(=O)c2nc(SC)ncc2Cl)CC1,"inconclusive: 3.55 µM [inhibitor, partial curve, poor fit]",
CCOc1ccccc1CNC(=O)C1CCN(C(=O)N2CC(CC)Oc3ccc(C)cc32)CC1 (stereo not given),"inconclusive: 28.2 µM [inhibitor, single point]",
C[C@@H](NCCCc1cccc(C(F)(F)F)c1)c1cccc2ccccc12,"inconclusive: 39.8 µM [inhibitor, single point]",
Cc1cc(OCCn2cc(C(=O)c3cccs3)c3ccccc32)ccc1Cl,"inconclusive: 31.6 µM [inhibitor, single point]",
Cc1c(C(=O)OCCOc2ccccc2)[nH]c2c1C(=O)CC(c1ccccc1)C2 (stereo not given),"inconclusive: 0.562 µM [inhibitor, full curve]",
